# Laboratory results as given in the BET-seq Pho4 binding data (Le et al. 2018).
# The other results are listed elsewhere or left out. Values were computed here from the reads of four pooled replicates and scatter widely.
# Molecular target: T1, Pho4 (S. cerevisiae) (UniProt P07270)
# T1 sequence: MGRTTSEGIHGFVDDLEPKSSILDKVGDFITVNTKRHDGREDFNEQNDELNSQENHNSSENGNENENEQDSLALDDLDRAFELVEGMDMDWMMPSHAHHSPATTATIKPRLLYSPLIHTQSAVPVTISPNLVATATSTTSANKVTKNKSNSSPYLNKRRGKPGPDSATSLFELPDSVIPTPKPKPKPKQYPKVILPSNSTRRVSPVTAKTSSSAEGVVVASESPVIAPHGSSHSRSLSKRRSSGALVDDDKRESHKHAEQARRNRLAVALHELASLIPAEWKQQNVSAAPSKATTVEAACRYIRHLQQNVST
# Experiment: relative binding free energy (BET-seq); higher = weaker binding
# Details: reference: library average
row,Sequence,relative binding free energy [kcal/mol]
1,TATAGCACGTGTTGCG,0.01
2,GGGTACACGTGATTTA,0.07
3,GCGGTCACGTGTGCTG,0.16
4,TGTTTCACGTGAAGTC,0.32
5,AGTGTCACGTGCGGGC,-0.03
6,GGGCGCACGTGGTTTG,0.03
7,TATTACACGTGTGCAG,0.21
8,GGAGGCACGTGGACAT,0.03
9,GTGGTCACGTGGAATT,0.3
10,CAGTTCACGTGGAGTT,0.2
11,TTAATCACGTGCGAGT,0.22
12,TAGGGCACGTGCTGGT,-0.14
13,ATGAACACGTGTCAGT,0.11
14,GTTGGCACGTGTTCAT,0.08
15,AAGGGCACGTGACTGT,-0.01
16,ATTGTCACGTGGAGTG,0.06
17,CGGTACACGTGTGCGT,0.09
18,GTTTGCACGTGGGGAG,-0.04
19,TTGTCCACGTGATGTG,0.3
20,ATTGGCACGTGGAGCG,-0.07
21,GCGTTCACGTGATTGG,0.44
22,TGAGACACGTGATATT,0.08
23,TTAGGCACGTGAAAAA,0.13
24,AGGTGCACGTGATAAG,0.11
25,TTTAGCACGTGTATAT,-0.06

row,Sequence,relative binding free energy [kcal/mol]
1,GAGTTCACGTGGGGCT,0.15
2,TGTGGCACGTGTATAT,-0.06
3,GGATTCACGTGAGGAT,0.42
4,TGTCGCACGTGGAGGC,-0.03
5,TGGGGCACGTGCTGCT,-0.22
6,GTGGGCACGTGGTAGG,-0.1
7,GGGTGCACGTGCCAGT,0.01
8,TGATGCACGTGCGTAA,-0.06
9,TGAAGCACGTGGGGCT,-0.18
10,CTAGACACGTGGAGGT,0
11,CGTTACACGTGCTGGT,0.11
12,GTTTTCACGTGTCTTG,0.43
13,AGGAACACGTGAGAGT,0.19
14,AGTATCACGTGCGGTA,0.08
15,ATAGGCACGTGTCGTT,-0.1
16,CTTTACACGTGTCTGT,0.11
17,TGCGTCACGTGGAAGA,0.08
18,GGGTGCACGTGTTCCG,0.13
19,GTTAACACGTGGTTGT,0.1
20,AGTTGCACGTGTGAGG,0.12
21,TAGGTCACGTGTTGTA,0.11
22,AGAATCACGTGGAGGG,0.18
23,TGGGTCACGTGTTGGT,0.22
24,GGGGTCACGTGTGGAT,0.24
25,CTATTCACGTGGTGGA,0.18

row,Sequence,relative binding free energy [kcal/mol]
1,GTGGGCACGTGATTTC,0
2,CTTGGCACGTGTTAAA,0.03
3,CGATTCACGTGTATTT,0.16
4,GTGGGCACGTGCTGTA,-0.2
5,GTTGACACGTGGGATC,-0.01
6,AGATTCACGTGATGGA,0.33
7,TTAGACACGTGTCAGG,0.06
8,TATCGCACGTGTAATT,0.13
9,TCGTTCACGTGGAGTG,0.17
10,GCGTGCACGTGTCAGG,-0.06
11,GGTGCCACGTGCTGTT,-0.09
12,TCGATCACGTGGGTTG,0.07
13,TGTAGCACGTGTTTCA,-0.05
14,CGCAGCACGTGAGGGT,0.08
15,AGGTGCACGTGGTTGG,-0.06
16,AATTTCACGTGGGACG,0.24
17,AAAGGCACGTGCGTAG,-0.08
18,CTTATCACGTGTTGGT,0.12
19,GTTTACACGTGCGGGG,0.17
20,GAGGACACGTGGTAGT,0.12
21,AGGCGCACGTGGTATA,-0.18
22,GCATTCACGTGGATGT,0.22
23,TTGCTCACGTGCGGTT,0.21
24,TTGTTCACGTGACCTG,0.44
25,GGTGTCACGTGAGAAT,0.21

row,Sequence,relative binding free energy [kcal/mol]
1,TGGAGCACGTGTTTGG,0.03
2,GAAGGCACGTGAATGT,0.19
3,ACTGGCACGTGGATTG,-0.07
4,TTAAACACGTGTTGGG,-0.04
5,CGTAACACGTGTTGTG,-0.13
6,TCGGTCACGTGGGAGC,0.11
7,ATGATCACGTGTTATA,0.02
8,TCATTCACGTGTAAGG,0.24
9,AAGCGCACGTGGGTGC,-0.17
10,TTGAACACGTGGCGTT,-0.06
11,TTACACACGTGGGGTT,-0.16
12,TTTACCACGTGGTGGA,-0.12
13,TAATGCACGTGAGAGT,0.16
14,GGGGACACGTGAGTCT,0.25
15,TGTCACACGTGTTTTA,0.06
16,GGGAGCACGTGGGCCG,-0.16
17,TATGTCACGTGCTTTT,0.01
18,GCGGGCACGTGGGTCA,-0.23
19,TTTATCACGTGTTTCA,0.09
20,ATTGTCACGTGTCGTA,0.13
21,GGATGCACGTGGTGTC,-0.01
22,TTCGTCACGTGAGTGA,0.17
23,GGGAGCACGTGGTCTT,-0.11
24,GGTGACACGTGGAATT,0.22
25,GTGGTCACGTGGCTTG,0.09

row,Sequence,relative binding free energy [kcal/mol]
1,AGGGGCACGTGTCTTT,-0.2
2,CTAGTCACGTGTGTGT,0.08
3,CGGTTCACGTGTGCAT,0.42
4,TAGATCACGTGTGAAG,0.33
5,GTGAGCACGTGGTTTT,-0.09
6,TTTTGCACGTGTTTTC,0.16
7,CGGTGCACGTGAAGGT,0.25
8,CCTAGCACGTGTTGGG,0.02
9,AGGTTCACGTGCGGTA,0.29
10,ATGGTCACGTGGTTCT,0.11
11,TTAATCACGTGCTGAT,0.2
12,AGGGGCACGTGGGCGC,-0.28
13,AGTTGCACGTGACGGG,0.08
14,CTAGGCACGTGGAAGG,-0.22
15,GTCCGCACGTGGGATG,-0.04
16,TCGGGCACGTGTGCTT,-0.03
17,TGATGCACGTGAGATG,0.2
18,GAGTTCACGTGGTCGG,0.32
19,TTGGTCACGTGGCAGC,0.04
20,GTTTACACGTGAATAG,0.45
21,ATTATCACGTGTAGTA,0.14
22,AGTAACACGTGTTGTG,-0.02
23,GGTCTCACGTGGTCGT,0.15
24,TGTACCACGTGATGTA,0.08
25,TTTGGCACGTGGTCTT,-0.07

row,Sequence,relative binding free energy [kcal/mol]
1,ATATTCACGTGGTATT,0.09
2,TAAAGCACGTGGGTGC,-0.24
3,TTTTTCACGTGTGAGA,0.27
4,TGTGCCACGTGTCTAG,-0.04
5,TTACTCACGTGTGGCT,0.18
6,ATTAACACGTGGGTGT,-0.1
7,ATATGCACGTGTTCTG,-0.04
8,GTTTCCACGTGGTATA,0.12
9,TTTCACACGTGTGTGC,0.25
10,GTCGGCACGTGTATAT,0.12
11,TGGGCCACGTGCAGGT,-0.19
12,TTAGGCACGTGGTGCT,-0.13
13,TTTCACACGTGATTTG,0.17
14,AATTTCACGTGTACGT,0.37
15,TGTATCACGTGCTGGT,0.03
16,ATGGACACGTGGAAAT,0.13
17,TTTGTCACGTGTTCCG,0.12
18,AGATGCACGTGGGGAT,-0.07
19,CTATTCACGTGTTGTG,0.17
20,TTTGTCACGTGCGATT,0.28
21,CTGTTCACGTGGGTTC,0.24
